Test results reported in the supplement of paper PMC8728848.
The other results are listed elsewhere or left out.

How the values were obtained:
Assay in all cases: glycan array binding signal (z-score within array); higher = stronger binding
Settings in all cases: glycan notation: IUPAC condensed, linker removed
Neu5Ac(a2-8)Neu5Ac = target: Neu5Ac(a2-8)Neu5Ac
How it was run: (§1)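 Glycan array data came from 3228 arrays in the Consortium for Functional Glycomics database, and only arrays with an available protein sequence were kept. Glycan names were put into IUPAC-condensed notation, and columns mapping to the same glycan were averaged. The binding signal is a within-array Z-score, averaged across arrays of one protein sequence run at different concentrations or buffers and across linkers. A negative Z-score can be read as non-binding.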

[1] = target: Neu5Ac(a2-8)Neu5Ac(a2-3)Gal(b1-3)GalNAc(b1-4)[Neu5Ac(a2-3)]Gal(b1-4)Glc
How it was run: as §1

[2] = target: Neu5Ac(a2-8)Neu5Ac(a2-3)Gal(b1-3)GalNAc(b1-4)[Neu5Ac(a2-8)Neu5Ac(a2-3)]Gal(b1-4)Glc
How it was run: as §1

[3] = target: Neu5Ac(a2-8)Neu5Ac(a2-3)Gal(b1-4)Glc
How it was run: as §1

[4] = target: Neu5Ac(a2-8)Neu5Ac(a2-3)Gal(b1-4)GlcNAc
How it was run: as §1

[5] = target: Neu5Ac(a2-8)Neu5Ac(a2-3)[Gal(b1-3)GalNAc(b1-4)]Gal(b1-4)Glc
How it was run: as §1

[6] = target: Neu5Ac(a2-8)Neu5Ac(a2-3)[GalNAc(b1-4)]Gal(b1-4)Glc
How it was run: as §1

[7] = target: Neu5Ac(a2-8)Neu5Ac(a2-8)Neu5Ac
How it was run: as §1

[8] = target: Neu5Ac(a2-8)Neu5Ac(a2-8)Neu5Ac(a2-3)Gal(b1-4)Glc
How it was run: as §1

[9] = target: Neu5Ac(a2-8)Neu5Ac(a2-8)Neu5Ac(a2-3)[Gal(b1-3)GalNAc(b1-4)]Gal(b1-4)Glc
How it was run: as §1

[10] = target: Neu5Ac(a2-8)Neu5Ac(a2-8)Neu5Ac(a2-3)[GalNAc(b1-4)]Gal(b1-4)Glc
How it was run: as §1

[11] = target: Neu5Ac(a2-8)Neu5Ac(a2-8)Neu5Ac(a2-8)Neu5Ac(a2-3)[GalNAc(b1-4)]Gal(b1-4)Glc
How it was run: as §1

[12] = target: Neu5Ac(a2-8)Neu5Gc(a2-3)Gal(b1-4)GlcNAc
How it was run: as §1

[13] = target: Neu5Ac(b2-6)Gal(b1-4)GlcNAc
How it was run: as §1

Neu5Ac(b2-6)GalNAc = target: Neu5Ac(b2-6)GalNAc
How it was run: as §1

[14] = target: Neu5Ac9Ac(a2-3)Gal(b1-3)GlcNAc
How it was run: as §1

[15] = target: Neu5Ac9Ac(a2-3)Gal(b1-4)GlcNAc
How it was run: as §1

[16] = target: Neu5Ac9Ac(a2-6)Gal(b1-4)GlcNAc
How it was run: as §1

[17] = target: Neu5Gc(a2-3)Gal(b1-3)GlcNAc
How it was run: as §1

[18] = target: Neu5Gc(a2-3)Gal(b1-3)[Fuc(a1-4)]GlcNAc
How it was run: as §1

Neu5Gc(a2-3)Gal(b1-4)Glc = target: Neu5Gc(a2-3)Gal(b1-4)Glc
How it was run: as §1

[19] = target: Neu5Gc(a2-3)Gal(b1-4)GlcNAc
How it was run: as §1

[20] = target: Neu5Gc(a2-3)Gal(b1-4)GlcNAc(b1-3)Gal(b1-4)GlcNAc(b1-2)Man(a1-3)[Neu5Gc(a2-3)Gal(b1-4)GlcNAc(b1-3)Gal(b1-4)GlcNAc(b1-2)Man(a1-6)]Man(b1-4)GlcNAc(b1-4)GlcNAc
How it was run: as §1

[21] = target: Neu5Gc(a2-3)Gal(b1-4)[Fuc(a1-3)]GlcNAc
How it was run: as §1

[22] = target: Neu5Gc(a2-6)Gal(b1-4)GlcNAc
How it was run: as §1

Neu5Gc(a2-6)GalNAc = target: Neu5Gc(a2-6)GalNAc
How it was run: as §1

[23] = target: Neu5Gc(a2-8)Neu5Ac(a2-3)Gal(b1-4)GlcNAc
How it was run: as §1

[24] = target: Neu5Gc(a2-8)Neu5Gc(a2-3)Gal(b1-4)GlcNAc
How it was run: as §1

[25] = target: Neu5Gc(a2-8)Neu5Gc(a2-3)Gal(b1-4)GlcNAc(b1-3)Gal(b1-4)GlcNAc
How it was run: as §1

[26] = target: Neu5Gc(a2-8)Neu5Gc(a2-6)Gal(b1-4)GlcNAc
How it was run: as §1

[27] = target: Neu5Gc(b2-6)Gal(b1-4)GlcNAc
How it was run: as §1

B1: Cohesin-hLangerin (Homo sapiens) (protein)
chain: LDDLDAVRIKVDTVNAKPGDTVRIPVRFSGIPSKGIANCDFVYSYDPNVLEIIEIEPGDIIVDPNPDKSFDTAVYPDRKIIVFLFAEDSGTGAYAITKDGVFATIVAKVKEGAPNGLSVIKFVEVGGFANNDLVEQKTQFFDGGANVGDTTEPATPTTPVTTPTTTDDLDAASYPRFMGTISDVKTNVQLLKGRVDNISTLDSEIKKNSDGMEAAGVQIQMVNESLGYVRSQFLKLKTSVEKANAQIQILTRSWEEVSTLNAQIPELKSDLEKASALNTKIRALQGSLENMSKLLKRQNDILQVVSQGWKYFKGNFYYFSLIPKTWYSAEQFCVSRNSHLTSVTSESEQEFLYKTAGGLIYWIGLTKAGMEGDWSWVDDTPFNKVQSARFWIPGEPNNAGNNEHCGNIKAPSLQAWNDAPCDKTFLFICKRPYVPSEPHHHHHH
- glycan array binding signal (z-score) (Neu5Ac(a2-8)Neu5Ac): -0.422
- glycan array binding signal (z-score) [1]: -0.417
- glycan array binding signal (z-score) [2]: -0.198
- glycan array binding signal (z-score) [3]: -0.429
- glycan array binding signal (z-score) [4]: -0.431
- glycan array binding signal (z-score) [5]: -0.417
- glycan array binding signal (z-score) [6]: -0.342
- glycan array binding signal (z-score) [7]: -0.426
- glycan array binding signal (z-score) [8]: -0.435
- glycan array binding signal (z-score) [9]: -0.401
- glycan array binding signal (z-score) [10]: -0.383
- glycan array binding signal (z-score) [11]: -0.249
- glycan array binding signal (z-score) [12]: -0.395
- glycan array binding signal (z-score) [13]: -0.412
- glycan array binding signal (z-score) (Neu5Ac(b2-6)GalNAc): -0.436
- glycan array binding signal (z-score) [14]: -0.079
- glycan array binding signal (z-score) [15]: -0.363
- glycan array binding signal (z-score) [16]: 0.941
- glycan array binding signal (z-score) [17]: -0.396
- glycan array binding signal (z-score) [18]: -0.194
- glycan array binding signal (z-score) (Neu5Gc(a2-3)Gal(b1-4)Glc): -0.104
- glycan array binding signal (z-score) [19]: -0.364
- glycan array binding signal (z-score) [20]: -0.396
- glycan array binding signal (z-score) [21]: -0.243
- glycan array binding signal (z-score) [22]: -0.164
- glycan array binding signal (z-score) (Neu5Gc(a2-6)GalNAc): -0.305
- glycan array binding signal (z-score) [23]: -0.431
- glycan array binding signal (z-score) [24]: -0.437
- glycan array binding signal (z-score) [25]: -0.438
- glycan array binding signal (z-score) [26]: -0.412
- glycan array binding signal (z-score) [27]: -0.42
